# From the supplement of paper PMC4604168 (melanoma cell lines)
# This is one part of the list. Single values are uncertain, as repeats are few or missing.
# Test system: WM115
# Assay: cell count relative to DMSO control; melanoma cells; higher = more viable cells
# Conditions: library dose: standard library concentration; 72 h
# 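Note: cells treated in 1,536-well plates, then fixed and DAPI-stained, with nuclei counted from automated high-throughput microscope images.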
row,Structure (SMILES),cell count [%]
1,"Cn1cnc2c(F)c(Nc3ccc(Br)cc3Cl)c(C(=O)NOCCO)cc21 [selumetinib] + Cc1cc([N+](=O)[O-])ccc1NS(=O)(=O)c1cc(Cl)ccc1Cl [FH535] (first compound 0.075 µM, partner dose 5 µM)",55.9
2,"Cn1cnc2c(F)c(Nc3ccc(Br)cc3Cl)c(C(=O)NOCCO)cc21 [selumetinib] + COc1cc2ncnc(Nc3ccc(Oc4ccccc4)cc3)c2cc1OC [SrcI1] (first compound 0.075 µM, partner dose 10 µM)",46.3
3,"C[C@]1(O)C[C@@H](c2nc(-c3ccc4ccc(-c5ccccc5)nc4c3)c3c(N)nccn32)C1 + CCc1ccc(CCOc2ccc(CC3SC(=O)NC3=O)cc2)nc1 [pioglitazone] (first compound 2 µM, partner dose 10 µM)",103
4,"CCN(CC)CCNC(=O)c1c(C)[nH]c(/C=C2\C(=O)Nc3ccc(F)cc32)c1C [sunitinib] + O=S(=O)(c1ccccc1)N(CC(F)(F)F)c1ccc(C(O)(C(F)(F)F)C(F)(F)F)cc1 [T0901317] (first compound 2 µM, partner dose 7 µM)",73.7
5,"Cn1cnc2c(F)c(Nc3ccc(Br)cc3Cl)c(C(=O)NOCCO)cc21 [selumetinib] + Oc1cc(-c2nc(-c3ccccc3)[nH]c2-c2ccncc2)ccc1Cl [L779450] (first compound 0.075 µM, partner dose 1 µM)",38.3
6,"C[C@]1(O)C[C@@H](c2nc(-c3ccc4ccc(-c5ccccc5)nc4c3)c3c(N)nccn32)C1 + N#Cc1c(O)c2c(-c3ccc(-c4ccccc4O)cc3)csc2[nH]c1=O [A769662] (first compound 2 µM, partner dose 10 µM)",127
7,"COc1cc([C@@H]2c3cc4c(cc3[C@@H](O[C@@H]3O[C@@H]5CO[C@@H](C)O[C@H]5[C@H](O)[C@H]3O)[C@H]3COC(=O)[C@H]23)OCO4)cc(OC)c1O [etoposide] + N#Cc1c(O)c2c(-c3ccc(-c4ccccc4O)cc3)csc2[nH]c1=O [A769662] (first compound 0.1 µM, partner dose 10 µM)",84.7
8,"CCN(CC)CCNC(=O)c1c(C)[nH]c(/C=C2\C(=O)Nc3ccc(F)cc32)c1C [sunitinib] + COc1ccc(-c2ccc3c(N4CCOCC4)nc(N4C[C@@H](C)O[C@@H](C)C4)nc3n2)cc1CO [KU0063794] (first compound 2 µM, partner dose 0.1 µM)",46
9,"CCN(CC)CCNC(=O)c1c(C)[nH]c(/C=C2\C(=O)Nc3ccc(F)cc32)c1C [sunitinib] + N#Cc1c(O)c2c(-c3ccc(-c4ccccc4O)cc3)csc2[nH]c1=O [A769662] (first compound 2 µM, partner dose 10 µM)",74.6
10,"Cn1cnc2c(F)c(Nc3ccc(Br)cc3Cl)c(C(=O)NOCCO)cc21 [selumetinib] + CCc1ccc(CCOc2ccc(CC3SC(=O)NC3=O)cc2)nc1 [pioglitazone] (first compound 0.075 µM, partner dose 10 µM)",64.4
11,"C[C@]1(O)C[C@@H](c2nc(-c3ccc4ccc(-c5ccccc5)nc4c3)c3c(N)nccn32)C1 + COc1ccc(-c2ccc3c(N4CCOCC4)nc(N4C[C@@H](C)O[C@@H](C)C4)nc3n2)cc1CO [KU0063794] (first compound 2 µM, partner dose 0.1 µM)",84.8
12,"Cn1cnc2c(F)c(Nc3ccc(Br)cc3Cl)c(C(=O)NOCCO)cc21 [selumetinib] + O=c1cc(-c2cccc3c2Sc2ccccc2S3)oc(N2CCOCC2)c1 [KU55933] (first compound 0.075 µM, partner dose 5 µM)",51.9
13,"Cn1cnc2c(F)c(Nc3ccc(Br)cc3Cl)c(C(=O)NOCCO)cc21 [selumetinib] + O=C(Nc1ccccc1)c1cc([N+](=O)[O-])ccc1Cl [GW9662] (first compound 0.075 µM, partner dose 10 µM)",63.7
14,"COc1cc([C@@H]2c3cc4c(cc3[C@@H](O[C@@H]3O[C@@H]5CO[C@@H](C)O[C@H]5[C@H](O)[C@H]3O)[C@H]3COC(=O)[C@H]23)OCO4)cc(OC)c1O [etoposide] + COc1cc(N2CCC(N3CCN(C)CC3)CC2)ccc1Nc1ncc(Cl)c(Nc2ccccc2S(=O)(=O)C(C)C)n1 [NVP-TAE684] (first compound 0.1 µM, partner dose 0.4 µM)",63.8
